Data on 84 variants can be found in the RNAGym collection of RNA variant scans (doi:10.1073/pnas.2313332121).

Variants at the background level are over-represented here.

B1: TPR 5TU (parent)
chain: GGAUCUUCUCGAUCUAACAAAAAAGACAAAUCUGCCACAAAGCUUGAGAGCAUCUUCGGAUGCAGAGGCGGCAGCCUUCGGUGGCGCGAUAGCGCCAACGUUCUCAACUAUGACACGCAAAACGCGUGCUCCGUUGAAUGGAGUUUAUCAUG

The variants in this data set derive from B1. Description: polymerase ribozyme fitness, log enrichment relative to wild type (log ratio); higher = more active; in vitro selection for triplet polymerase activity. The gist of the method:
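PCR was used to build mutant libraries for each subunit of a heterodimeric triplet polymerase ribozyme, which were then transcribed. A single in vitro selection round, in triplicate, used a frozen incubation at −7 °C and recovered extended constructs by gel excision, streptavidin beads and RT-PCR. Fitness is the logarithm of genotype enrichment relative to wild-type enrichment, averaged over replicates with inverse-variance weights. The logarithm is base 2, and after Illumina sequencing only genotypes with ≥10 input reads and ≥1 read per output were kept.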
For A22U C85G C96G G133U, the “polymerase ribozyme fitness (log ratio)” value was at most -4.2.

Regarding A22U A73G U82A, the “polymerase ribozyme fitness (log ratio)” value turned out to be 1.72.

A22U A47U G58U G92C A150C: the “polymerase ribozyme fitness (log ratio)” value was at most -4.2. For the variant A22U A26C A41U C103U C118A, the “polymerase ribozyme fitness (log ratio)” value was at most -4.2. As to A22U A47U G59U G86U A91U A113U G143C A150G, the “polymerase ribozyme fitness (log ratio)” value was at most -4.2. With A23G U55A G62C G68U C96U A121U, the “polymerase ribozyme fitness (log ratio)” value is at most -4.2.

Take A22U G65A G71A C93U G141A: the “polymerase ribozyme fitness (log ratio)” value was at most -4.2. Turning to A22U A52G A73U G88A C118U, the “polymerase ribozyme fitness (log ratio)” value is at most -4.2. With A23G A41U U44A G86C C87U C93U U134A the figure was at most -4.2. With A23G C51U C69U A97U U101G A107U the figure was at most -4.2. As to A22G C38A U55A G58C C72U C93A U102G G112C C131G, the “polymerase ribozyme fitness (log ratio)” value is at most -4.2. Under A23C A30U A49G G59U A66U G74U A91G C99A stands at most -4.2; under A22G C87A G92U G136C A150C, at most -4.2; under A23C A52G G84C G86A A107U G128C, at most -4.2. Under A22U A40G U61G G65C U104G C116G G143C stands at most -4.2; under A22G G58A C75A G86U C99A C103U G141C, at most -4.2; under A23C C43U C76G C96G, at most -4.2. With A23C G50C U101G A147U the figure was at most -4.2. On to A22U G50U, for which the “polymerase ribozyme fitness (log ratio)” value stood at 1.37.

A23G U44G U53G A91C C95U C103A G117A A121C G126A: the “polymerase ribozyme fitness (log ratio)” value is at most -4.2. Under A22U G92U U102A A122U U127G U134G stands at most -4.2; under A23C C57U C85U G86A C125A U144G, at most -4.2; under A23C A24G G48C A107G, at most -4.2.

For A22G A23C C32G C72U, the “polymerase ribozyme fitness (log ratio)” value is at most -4.2. Under A23C A41U G59C C75U U101A stands at most -4.2. Under A22U G50C U53G G88C C93U C96U C108U stands at most -4.2; under A22U G141C, 1.14; under A22U C35A A40C C93U, at most -4.2. With A22U A47G U56C G92C C105U the figure was -3.13; with A23C C57G G58A A64C C72G G80A G86A U145G A150C, at most -4.2; with A22C G92C U139C G152A, at most -4.2. As for A22U A26C C87U U90G C96A U151C, the “polymerase ribozyme fitness (log ratio)” value was at most -4.2. Under A23C C35A U55C A73G C96U C116U A121U U148C stands at most -4.2; under A23C U45G G94U C103G U148G, at most -4.2; under A23G A37U U135G G136U, at most -4.2. Under A23C C51U G58A C75U C85G G143A U145G stands at most -4.2; under A22U U31A A66G C95A A97U A113U C123A, at most -4.2; under A22U A39C U61A C72U C85G G141A, at most -4.2.

For A23C A40U U77A C87G C96U C131U, the “polymerase ribozyme fitness (log ratio)” value was at most -4.2. A23G A24G G42U U78C C95U C114A G124A C149A: the “polymerase ribozyme fitness (log ratio)” value is at most -4.2.

Regarding A23G A49C C79G G84A C87U A98U A137C U146C, the “polymerase ribozyme fitness (log ratio)” value is at most -4.2. Under A22U C79G U135A A138G stands at most -4.2; under A22C G83U U90C C105A U135C G140U, at most -4.2. Take A22U C87G C116G: the “polymerase ribozyme fitness (log ratio)” value is at most -4.2. With A23C C87U C93U C95G C96G the figure was at most -4.2; with A22U C54A, -0.932. For A22U C99U U101G A115U U151G, the “polymerase ribozyme fitness (log ratio)” value was at most -4.2.

For the variant A23G A29G C93U C103G, the “polymerase ribozyme fitness (log ratio)” value is at most -4.2.

In the case of A23G A40C G84A C99G U139G, the “polymerase ribozyme fitness (log ratio)” value is at most -4.2. With A23G C85U, the “polymerase ribozyme fitness (log ratio)” value is -2.38. With A22C G67C G68A G88A U148A the figure was at most -4.2. Under A23C U45C A52C U55A C75G C76U C93A A119G G143U stands -4.17; under A22G C57G G140A, at most -4.2; under A23C C57U C76U A89U C93U, at most -4.2.

Take A23U A28C A39G A49C U53A G124C: the “polymerase ribozyme fitness (log ratio)” value is at most -4.2. Under A23C A37C U53A A64C U90C C96G U101G G126A stands at most -4.2.

With A22U C35U A41U G74U G80A C85U A110U G141U, the “polymerase ribozyme fitness (log ratio)” value is at most -4.2. Under A22U C85G C125U G140A stands at most -4.2; under A23G A39U U55G U56C C69A C87A A138G, at most -4.2. With A23G A40G U61A C131G G141A the figure was at most -4.2; with A23C C43A U55A U56A G70A G88C U102G G141A, at most -4.2; with A23G A40G U53G A89C C95A, at most -4.2.

With A23G A28C A115U U134A, the “polymerase ribozyme fitness (log ratio)” value was at most -4.2. With A23G A66C C85G the figure was at most -4.2; with A22U U53A G88A C116G A142G A150C, at most -4.2. Under A23G U44A G88A stands -4.1; under A22C U44A A47C, at most -4.2. With A23G C69U G88C A107G U139C the figure was at most -4.2.

On to A23G U33C C54A C96U U101A A107G, for which the “polymerase ribozyme fitness (log ratio)” value is at most -4.2. Under A23C G46A G86U C99G A110G stands at most -4.2; under A22G U56G A64C U109G C116G U144G, at most -4.2; under A23C A26U U53A C85A G136U, at most -4.2. On to A22U A39U G50A C96A C108G C116U A120U, for which the “polymerase ribozyme fitness (log ratio)” value was at most -4.2. Under A23C A49U A64C C96A U144A stands at most -4.2; under A23G U45A G81U C85G C87U U90G C96U C118U, at most -4.2; under A23G G100A, at most -4.2.

Consider A22G A29G C75U A89U C93U C103U, for which the “polymerase ribozyme fitness (log ratio)” value is at most -4.2. Consider A23G C51U U55G G83U G92U, for which the “polymerase ribozyme fitness (log ratio)” value was at most -4.2.

As to A23G G83A C114U C149G, the “polymerase ribozyme fitness (log ratio)” value was at most -4.2. Under A23G A24G A29C C76A C93G G94U G126U U146G stands at most -4.2. With A23C G25U U53G G94A G117C A137C the figure was at most -4.2; with A22C U55A G124A A137C U144A, at most -4.2.

As for A22G U31C U55A C93G C108A, the “polymerase ribozyme fitness (log ratio)” value was at most -4.2.

For A23C C32A A47C U78G C95U C96A, the “polymerase ribozyme fitness (log ratio)” value was at most -4.2.
